From the RNAGym collection of RNA variant scans (doi:10.1073/pnas.2313332121)
Variants at the background level are over-represented here.

B1: TPR 5TU (parent)
chain: GGAUCUUCUCGAUCUAACAAAAAAGACAAAUCUGCCACAAAGCUUGAGAGCAUCUUCGGAUGCAGAGGCGGCAGCCUUCGGUGGCGCGAUAGCGCCAACGUUCUCAACUAUGACACGCAAAACGCGUGCUCCGUUGAAUGGAGUUUAUCAUG

Variants of: B1
Assay: polymerase ribozyme fitness, log enrichment relative to wild type (log ratio); higher = more active; in vitro selection for triplet polymerase activity
How it was run: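 Input and output libraries were sequenced on Illumina after a single in vitro selection round, run in triplicate on PCR-built, transcribed mutant libraries of each subunit of a heterodimeric triplet polymerase ribozyme. Selection annealed libraries to a biotinylated primer, the partner subunit and triplets, incubated them frozen at −7 °C, then gel-excised extended constructs for streptavidin-bead capture and RT-PCR. Genotypes with ≥10 input reads and ≥1 read per output were kept. Fitness is the logarithm, taken in base 2, of genotype enrichment divided by wild-type enrichment, using inverse-variance-weighted replicate averages.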

Polymerase ribozyme fitness (log ratio), -3.98:
U33G A39U C116A U130G

Polymerase ribozyme fitness (log ratio), -3.81:
U33G G58C A120G G133C

Polymerase ribozyme fitness (log ratio), -4.15:
U33G A49C C75G G92A U101G C105A

Polymerase ribozyme fitness (log ratio), -4:
U33A U145C

Polymerase ribozyme fitness (log ratio), -3.29:
U33A

Polymerase ribozyme fitness (log ratio), ≤ -4.2:
C35A C87G U148C
U33G C57A C75U G94U
C35A C54U C129A
U33G U55A A66C G88C C123G U130G G136A C149A
U33G G80C C85G
G34C C93A A121U G124U C149G
U33A U78G A91U G94A A142C
C35A G62C U109G A122U A142C
G34A A39U G88A A150G
U33A G92U C96U C129A G133A A137U C149G G152A
G34U A39U C69G C76A G86U C93A
U33A A52G A60U G84A C95G U109G A115U G133U G140C U146G
G34C G50C G84C U102A
G34U G83C G94A A119U C131A
G34A U45A U101A G141C
G34A C75G C129A G133C
G34A G67U U77C A89C U101G C116G U151C
U33G C57G A89U A138U
U33C A115G
G34U G50U A60U G94C A107C U144A
U33G C57A C85A C96U
G34C C85A G126U A138G
C35A C43U C54U U61A G62U G94U G152U
U33A A49G A60G A89C C93U G141C
U33A A47C U56A A60C G67A C85U
U33G U45G A60C G133C
U33C G46A C54U U61A C105U C129A C132U G140U
C35A G70A C79U G81A
U33A U56C G58C G84A A91C G100U C103U
U33G U61A C75A G94C C103G A137C U146C
U33A A66U A73U A115C
G34C G88U U144A
U33C G80C U90G G92A
C32U G84U A115U G117U
U33A A47C G68U G92U U101C C103U A121U C131G U144G
C35A G50A U55A C75G C114G U144G U151C
U33A C38U G117C
G34A G65C U82G G83A A89G C105U A107U
C35A C76A G80C G86U G124U
G34A C76G G86A C95U C114U G140A U146C
G34A C85A A89U C118A
G34U A39C G59A A89G C114U A150U
U33C A37C C51G U53A G100C A115U C116A
C35A G68C C72U G84U G124A
U33A G50C U56A C76A G81C
C35A C99U G141C
C35A C54G G83A
G34U A39U U53A A64U C116U U146G
G34A C38A A73U G86A C87U C116U
G34A C63U G70C U77G A91C A113U G133C G143U
U33A G68A G94C A122U G124A U139C
G34U A52U G58C C85G C87U U135C
U33A G48C C57U C85U A115G C129G G141U
C35A G86A
U33A G46U C75A G140C
U33C U56A A60C C76A G86A G143U
U33G A41U A47U U55C U77C U82G A89G C95A A97C A119G G141C
U33A G83A G133U
G34A G92A C95U C123G A138U
G34A C36G G58C C85G G136U A150C G152C
U33G U77C A107U
C35A A37G C38G A60G A89U U134G U139G G152C
C32U G59U U77A
C35A A113G
C35A C95G U146A
G34A G42C G68A C93G U144A U151A
G34C G42C A47G A64C C95G U130G U146C
C35A C108U U111C
G34A A39U C96A U135C G140C
U33G C54A A91U C95U A98C U144A
U33G C75A G86U G143C

Polymerase ribozyme fitness (log ratio), -3.74:
C32U U33G C38U C54U U77A A107U

Polymerase ribozyme fitness (log ratio), -3:
U33G C95A

Polymerase ribozyme fitness (log ratio), -2.46:
G34A U55A

Polymerase ribozyme fitness (log ratio), -3.33:
G34C C87U

Polymerase ribozyme fitness (log ratio), -2.4:
U33G

Polymerase ribozyme fitness (log ratio), -3.87:
U33C A52G G70A G92A A150G

Polymerase ribozyme fitness (log ratio), -0.571:
G34A U145A
